In PMC6919601, “Identification of Plasmodium dipeptidyl aminopeptidase allosteric inhibitors by high throughput screening” (PLoS ONE, 2019):
“And” between values parts separate entries of the source, which are not always exact repeats. Identical values can stand only once. About 230 (0.21%) of roughly 110,000 compounds showed an effect of 50% or more. The list shows a part of the results.

The molecules below were run against DPAP1 (Plasmodium falciparum, UniProt Q8IIJ9) (assay: primary screen, percent inhibition; read by cleavage of a fluorogenic dipeptide substrate; higher = more effect of the substance).
Parameters: species or system P. falciparum D10 trophozoite lysates; single well
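Also: 30 min substrate incubation versus DMSO and 10 µM JCP410 controls.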

Chain of DPAP1 (Q8IIJ9 whole entry, looked up): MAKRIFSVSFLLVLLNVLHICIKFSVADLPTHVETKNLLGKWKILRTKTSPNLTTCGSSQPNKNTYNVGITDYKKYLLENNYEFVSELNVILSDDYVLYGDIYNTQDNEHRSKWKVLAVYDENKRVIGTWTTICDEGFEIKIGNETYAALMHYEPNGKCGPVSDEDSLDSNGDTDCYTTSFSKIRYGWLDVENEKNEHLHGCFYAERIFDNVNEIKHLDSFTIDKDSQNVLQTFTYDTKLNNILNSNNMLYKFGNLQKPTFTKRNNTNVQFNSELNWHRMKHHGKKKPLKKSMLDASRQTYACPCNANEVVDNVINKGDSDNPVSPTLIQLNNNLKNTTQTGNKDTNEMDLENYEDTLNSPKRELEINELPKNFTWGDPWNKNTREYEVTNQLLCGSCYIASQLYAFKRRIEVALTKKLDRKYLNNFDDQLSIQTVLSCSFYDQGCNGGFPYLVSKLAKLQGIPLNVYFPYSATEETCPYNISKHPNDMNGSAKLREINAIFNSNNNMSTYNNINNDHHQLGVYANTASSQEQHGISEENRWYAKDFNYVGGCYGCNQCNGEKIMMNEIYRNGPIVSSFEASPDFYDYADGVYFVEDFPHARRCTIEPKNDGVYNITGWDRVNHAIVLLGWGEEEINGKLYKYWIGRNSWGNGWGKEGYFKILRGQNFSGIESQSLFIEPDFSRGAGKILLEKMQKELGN

SMILES | % Inhibition @ 10 uM
COc1ccc(C[C@H](NC(=O)c2ccccc2)C(=O)NCC#N)cc1 | -0.214%
Cc1nn(C(C)C(=O)NCCN2CCCCC2C)c(=O)c2c1sc1ccccc12 (stereo not drawn) | -3.1%
O=C(NCc1cccnc1)C1CCCN(c2ncnc3c2nc2n3CCCCC2)C1 (stereo not drawn) | 2.13%
COCC(C)NC(=O)c1cnn2c(C(F)F)cc(-c3ccc(C)cc3)nc12 (stereo not drawn) | 3.88%
CC(C)C[C@H](NC(=O)c1ccc(NC(=O)Cc2cccnc2)cc1)C(=O)NCC#N | -0.778%
CCOC(=O)N1CCN(C(=O)CSc2nnc(COc3ccc(Cl)cc3)o2)CC1 | 3.51%
CCn1ccc(C(=O)Nc2sc3c(c2C#N)CCC3)n1 | -1.37%
COc1cc(SC)ccc1C(=O)NCCOc1ccc(C)c(C)c1 | -1.84%
CCc1ccc(NC(=O)CCCc2ccc(OC)cc2)cc1 | -6.77%
COCCCNC(=O)CCc1nnc2ccc(N3CCC(C)CC3)nn12 | -4.02%
COc1ccc(-c2noc(CNC(=O)c3cccc(F)c3)n2)cc1 | -2.99%
CCCOc1ccc(-c2cc(C(=O)NCC3CCCO3)c3ccccc3n2)cc1 (stereo not drawn) | 2.54%
CC1CCC(NC(=O)c2ccc(CS(=O)(=O)Cc3ccccc3F)o2)CC1 (stereo not drawn) | 3.93%
Cc1c(CNC(=O)C2CC2c2ccc(C(C)(C)C)cc2)cnn1C (stereo not drawn) | -5.41%
COc1ccc(CCNCc2c(C(=O)O)c(C)n(Cc3ccc(F)cc3)c2C)cc1OC | -0.23%
O=C(COc1ccc(Br)cc1)Nc1cccc(O)c1 | -8.3%
CCOC(=O)N1CCC(NC(C)COC)CC1 (stereo not drawn) | 4.74%
CC1CCC(N(CCO)Cc2ccccc2)CC1 (stereo not drawn) | -0.0953%
Cc1sc(NC(=O)CC23CC4CC(CC(C4)C2)C3)c(C(N)=O)c1-c1ccccc1 | 4.96%
Cc1ccc(Cl)cc1NC(=O)C1CCCCC1 | -2.36%
COc1ccc(CN(C)S(=O)(=O)c2nnc(NC(=O)c3cccs3)s2)cc1OC | -3.99%
CC(=O)OC1CCC2(C)C(=CCC3C2CCC2(C)C(C(=O)O)CCC32)C1 (stereo not drawn) | 2.62%
Cc1ccc(CS(=O)(=O)CCC(=O)NCCC2=CCCCC2)cc1 | 0.514%
COc1ccccc1C(=O)Nc1cccc(-c2nc3ncccc3o2)c1 | -3.71%
CCN(CC)CCOc1ccc(C23CC4CC(CC(C4)C2)C3)cc1 | 1.33%

SMILES | % Inhibition @ 10 uM
Cc1oc2cc(OC(C)C)ccc2c(=O)c1-c1ccccc1 | 2.55%
CCc1c(O)n(C(C)CC)c(SCc2ccccc2)nc1=O (stereo not drawn) | 1.9%
CCOc1ccc2c(=O)c(Oc3ccc(F)cc3)c(C)oc2c1 | 6.41%
COC(=O)c1cc(S(=O)(=O)NCC2CCN(CCc3cccs3)CC2)cn1C | -3.57%
COc1cccc(C(=O)Nc2cccc(OCC(=O)c3ccc(F)cc3)c2)c1 | 3.8%
Brc1ccc(CSc2nnc(-c3ccccc3)o2)cc1 | -3.04%
O=C(O)c1[nH]c2ccc(Cl)cc2c1CC(=O)N1CCN(Cc2ccccc2)CC1 | 2.97%
CC1CCCCC1NS(=O)(=O)c1ccc2oc(=O)c3ncn(C)c3c2c1 (stereo not drawn) | -3.84%
CCOc1ccc(C2C3=C(O)CCCC3=NC(C)=C2C(=O)Nc2ccccc2C)cc1OC (stereo not drawn) | 2.36%
COc1ccc(C(=O)CCC(=O)NC(Cc2ccccc2)c2ccccc2)cc1 (stereo not drawn) | -8.86%
C=CCOc1cccc(CNc2ccc3[nH]c(O)nc3c2)c1 | -4.12%
COc1ccccc1NC(=O)CC1Sc2ccccc2NC1=O (stereo not drawn) | -3.93%
CCn1cc(C(C)NC(=O)c2ccc(COCC(F)(F)F)cc2)c(C)n1 (stereo not drawn) | -6.67%
O=[N+]([O-])c1cc(CN2CCc3ccccc3C2)ccc1Cl | -3.71%
O=C1NN(c2ccc(Cl)c(Cl)c2)C(=O)/C1=C/c1ccco1 | -1.5%
Cc1cccc2c1CC(C)(C)N/C2=C\C(N)=O | -5.1%
Nc1c(C(=O)NCc2ccco2)nnn1Cc1ccccc1 | 2.83%
OC(COc1ccc(Cl)cc1)CN1CCOCC1 (stereo not drawn) | -1.76%
COc1ccc(-c2cc(C(=O)O)c3c(-c4ccccc4)[nH]nc3n2)c(OC)c1OC | -0.0401%
N#Cc1c(-c2ccc(Cl)cc2)cc(C2CC2)nc1N | -1.5%
Cc1ccc(-c2onc(C)c2C)cc1S(=O)(=O)NCCN1CCCCCC1 | 1.32%
COc1cccc(C2c3c(oc4ccccc4c3=O)C(=O)N2c2nncs2)c1 (stereo not drawn) | 2.1%
CC(C)N(Cc1nc(-c2ccccc2)no1)C(=O)C(C)(C)Oc1ccc(Cl)cc1 | -4.31%
CN(C)c1ccc(/C=C2\SC(=O)N(Cc3ccccc3)C2=O)cc1 | 0.24%
Cc1cc([N+](=O)[O-])cc2c1N(C)C(=O)C2=O | -2.15%

SMILES | % Inhibition @ 10 uM
O=[N+]([O-])c1c(N2CCOCC2)cc(Cl)c2nonc12 | 2.51%
O=C(NCCCN1CCOCC1)c1cc2c(=O)oc3ccccc3c2s1 | 0.813%
CCCCNC(=O)CN(c1ccc(Cl)c(Cl)c1)S(C)(=O)=O | 0.764%
N#CC1=C(N)OC2=C(C(=O)CC(c3ccccc3)C2)C1c1ccc(Cl)c(Cl)c1 (stereo not drawn) | 16.8%
Cc1ccc(CN2C(=O)N/C(=C/c3c(F)cccc3Cl)C2=O)cc1 | -8.29%
CSc1ccn(-c2nc(-c3ccccc3)sc2-c2ccccc2)c(=O)n1 | 1.33%
Cc1cc(C(F)F)n2ncc(C(=O)NCc3ccc(Cl)cc3)c2n1 | -0.67%
O=C(O)c1cnn2c1NC(c1ccccc1)CC2C(F)(F)F (stereo not drawn) | 3.32%
O=C(COc1ccc2ccccc2c1)Nc1cc(C(=O)O)cc(C(=O)O)c1 | -0.968%
CCCOc1ccc(C2C(C#N)=C(N)Oc3c2oc(CO)cc3=O)cc1OC (stereo not drawn) | -1.21%
COc1ccc(/C=C/C(O)=C(\C#N)c2nc3ccccc3[nH]2)cc1OC | 0.0069%
CCCNC(=O)CSc1nc(-c2ccc(OC)c(OC)c2)cc(C(F)(F)F)n1 | 15.3%
Cc1ccc(C(=O)Nc2ccc(S(=O)(=O)N3CCCCCC3)cc2)cc1Br | -6.65%
COc1ccc(Br)cc1CN1CCN(C(=O)c2cccc(F)c2)CC1 | -1.04%
Cc1ccsc1/C=c1\sc2nnc(-c3ccc(Cl)cc3)n2c1=O | -3.64%
COc1cccc(/C=C2\N=C(c3ccc(Cl)cc3Cl)OC2=O)c1 | -4.84%
Cc1cccc2sc(NC(=O)c3ccccc3)nc12 | 2.07%
O=C1Oc2ccccc2C(=O)/C1=C(O)/C=C/c1ccccc1O | 0.238%
CSc1ccc(CCNC(=O)c2ccc(CS(=O)Cc3ccccc3Cl)o2)cc1 (stereo not drawn) | 2.57%
O=C(CSc1nc2cccnc2[nH]1)NCc1ccccc1Cl | -3.53%
O=C(CCCCCN1C(=O)c2ccccc2C1=O)NCCc1nc2ccccc2[nH]1 | -7.46%
N#CC1=C(N)Oc2[nH]nc(-c3ccc4c(c3)OCO4)c2C1c1cccs1 (stereo not drawn) | -2.88%
O=C(NCCN1CCOCC1)C(=O)NCc1ccco1 | 3.72%
CCOC(=O)N1CCN(S(=O)(=O)N2CCCC(C(=O)NCc3ccc(F)cc3Cl)C2)CC1 (stereo not drawn) | 2.05%
CC(NC(=O)/C=C/c1ccc2c(c1)OCO2)c1ccccc1 (stereo not drawn) | 4.1% and -0.569%

SMILES | % Inhibition @ 10 uM
CS(=O)(=O)N1CCC(C(=O)NC2CCCCCCC2)CC1 | -6.88%
Cc1ccc(Nc2nc(N)nc(-c3cc(Cl)ccc3O)n2)cc1 | 0.583%
CCc1ccc(CNC(=O)C2CCN(C3=NS(=O)(=O)C(c4ccc(C)c(C)c4)=C3C)CC2)cc1 | -0.12%
N#C/C(=C(/O)c1ccc(F)cc1)c1nc2ccccc2s1 | 5.94%
COc1ccc(OC)c(N2C(=O)CC(N3CCN(c4ccccc4)CC3)C2=O)c1 (stereo not drawn) | -1.17%
COc1cccc(S(=O)(=O)N2CCN(C(c3ccccc3)c3ccccc3)CC2)c1 | -2.21%
CN(C)CCCN(CCCN(C)C)Cc1cccc(C(F)(F)F)c1 | -2.34%
O=C(NCCOC(=O)c1cccc2ccccc12)c1ccccc1 | -4.91%
NS(=O)(=O)c1ccc(NC(=O)CSC2=N/C(=C/c3ccco3)C(=O)N2c2ccccc2)cc1 | -1.84%
COc1ccccc1CN1COc2c(Cl)cc3c(C)c(C)c(=O)oc3c2C1 | 0.895%
CCn1c(O)cc(=O)nc1SCc1ccc(Cl)cc1 | 0.215%
O=S(=O)(Nc1nc2ccccc2nc1Nc1ccc(O)cc1)c1ccccc1 | -3.62%
CC(=O)c1ccc(-c2ccc(/C=C3/SC(=O)N(CC(=O)N4CCOCC4)C3=O)o2)cc1 | 1.02%
O=S(=O)(NCc1ccccc1Cl)c1ccc2c(c1)OCCO2 | -1.02%
O=C(Cc1ccccc1)Nc1ccccc1NC(=O)Cc1ccccc1 | -0.173%
COc1cccc(OC)c1C(=O)Nc1cc(C(F)(F)F)ccc1Cl | 3.47%
O=C(Cc1ccc(F)cc1)Nc1noc2ccccc12 | -1.11%
Cc1onc(-c2c(Cl)cccc2Cl)c1C(=O)Nc1ccc2c(c1)OCO2 | -6.74%
CCOc1ccc(NC(=O)CC2(c3ccccc3)C(=O)c3ccccc3C2=O)cc1 | 0.00178%
COc1ccccc1C1=NOC(C(=O)NC(C)(C)C)C1 (stereo not drawn) | 3.2%
O=C1NN(c2ccc(Cl)c(Cl)c2)C(=O)/C1=C/c1cccs1 | 3.61%
Cc1nc2ccc3nc(NC(=O)c4ccc(C#N)cc4)sc3c2s1 | -2.41%
COc1cc(-c2nnc3sc(COc4ccccc4)nn23)cc(OC)c1OC | 11.7%
Cc1[nH]nc(O)c1C(c1c(O)n[nH]c1C)c1cn(C)c2ccccc12 | 4.05%
